Data published in PMC12040169 (PLOS Biology, 2025).
This is one part of the list.

System: T1, C. trachomatis L2/434/Bu expressing GFP (CTL2-GFP)
T1 construct: L2/434/Bu GFP intracellular growth in HeLa cells
Design: species or system HeLa; C. trachomatis total inclusion area by high-content imaging, normalised to DMSO
Conditions: total inclusion area; 28.5 h, 10 µM; inhibitor
Summary of the method: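 Post-fluorescence-read fixation, DNA staining with Hoechst and high-content imaging; GFP inclusion area and number per well, and nuclei counts, used as proxies for bacterial growth and host viability.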

SMILES | % of control remaining
COC(=O)C1CCN(S(=O)(=O)c2ccccc2[N+](=O)[O-])CC1 [CBK264393] | 81.0596
Cc1ccc(NC(=O)Cn2cnc3c2c(=O)n(C)c(=O)n3C)nc1 [CBK133463] | 114.169
Cc1nc2ccccc2c2c1C(=O)N(c1cccc(C(=O)OCC(=O)c3ccccc3Cl)c1)C2=O [CBK265505] | 93.9634
CC1CCN(S(=O)(=O)N2CCCC2c2cccc(F)c2)CC1 (stereo not drawn) [CBK281957] | 107.322
CCN(CC)Cc1ccc2[nH]c(=O)c(CNCc3ccc(OC)cc3)cc2c1 [CBK132113] | 108.144
O=C(Cc1cccc2ccccc12)Nc1ccc(Br)cc1C(=O)O [CBK268286] | 88.5487
Cn1cc(CC(=O)N2CCN(c3ccccc3)CC2)c2ccccc21 [CBK200168] | 97.7785
C1CN=C(SCCCSC2=NCCCN2)NC1 [CBK278210B] | 87.4374
O=[N+]([O-])c1ccc(O)c(/C=N/c2ccc(Oc3ccc(/N=C/c4cc([N+](=O)[O-])ccc4O)cc3)cc2)c1 [CBK261093] | 96.71
N#Cc1ccc(N2C(=O)c3ccccc3S2(=O)=O)cc1 [CBK113195] | 93.3176
CNS(=O)(=O)c1cccc(C(C)NC(=O)N2CCSCC2)c1 (stereo not drawn) [CBK305825] | 107.686
COc1ccc(C(=O)N[C@@H]2CN(Cc3ccc(CO)o3)CCC[C@H]2O)cc1 [CBK289067] | 109.28
COc1nccnc1N1CCN(Cc2cccnc2)CC1 [CBK084213] | 93.2085
CC(C)c1ccc(COc2nccnc2OC2CCN(CCCC#N)CC2)cc1 [CBK161576] | 97.2819
CC1CN(C(C)N2CC(C)OC2=O)C(=O)O1 (stereo not drawn) [CBK022981] | 108.482
COc1cccc(C(=O)NCCC(=O)N2CCOCC2)c1 [CBK304639] | 93.0262
CS(=O)(=O)N(CC(=O)Nc1ccc(C(F)(F)F)cc1)Cc1ccc(Cl)cc1 [CBK268915] | 87.3785
O=C(Cc1ccc(F)cc1)N1CCCC(c2cc3ncccc3[nH]2)C1 (stereo not drawn) [CBK283414] | 89.8182
COc1cc(-c2cn3ccnc3c(NCC3CCOCC3)n2)cc(OC)c1OC [CBK037284] | 134.128
CN(C)CCNc1nc(-c2ccc(Cl)cc2)nc2ccccc12 [CBK263942] | 15.7313
CCCCC1C(=O)N(C)CCN1C(=O)NCc1cn2ccc(C)cc2n1 (stereo not drawn) [CBK306648] | 81.2332
COc1ccccc1NC(=O)CCCC(=O)O [CBK261323] | 86.4988
Cc1ccccc1C(=O)Nc1ccc(S(=O)(=O)Nc2nccs2)cc1 [CBK086797] | 92.4458
COc1ccccc1-c1nccnc1N[C@@H](CO)C(C)C [CBK089034] | 108.178
CCCCSc1nnc2nc(C)cc(C)n12 [CBK027588] | 50.3279
CN(Cc1ccc(-c2ccc(S(C)(=O)=O)cc2)cn1)C1CCN(C(=O)CC(C)(C)O)CC1 [CBK165684T] | 27.084

SMILES | % of control remaining
CCc1[nH]c(=O)c(C(=O)N2CCc3[nH]c4c(C)cccc4c3C2)cc1C [CBK281586] | 100.34
Nc1ccccc1Sc1ccccn1 [CBK085854] | 81.3772
CS(=O)(=O)N(CC(=O)NC1CCCCCCC1)c1ccccc1 [CBK270112] | 108.932
O=C(Nc1cccc(Br)c1)/C(=C\c1cccnc1)NC(=O)c1ccccc1 [CBK261450] | 105.828
COc1ccccc1/C=C(/NC(=O)c1ccc(Cl)cc1Cl)C(=O)O [CBK263998] | 69.9678
CC(=O)c1ccccc1NC(=O)CSCC(=O)O [CBK057752] | 79.7316
Cc1ccc(OCC(=O)NC(=S)Nc2cc(C(=O)O)ccc2C)cc1 [CBK265000] | 116.7
COc1cnc(C(=O)NCc2ccccc2Cl)cc1O [CBK287993] | 100.537
O=C(CC(CN1CCN(CCN2CCCC2)CC1)C(=O)O)Nc1ccccc1 (stereo not drawn) [CBK286833] | 122.073
O=C(Nc1c(F)cc(F)cc1OC1CCNCC1)c1cnccn1 [CBK050273T] | 79.7001
O=C(NCc1nnc(-c2cccs2)o1)C1(c2ccccc2)CC1 [CBK284635] | 100.202
Cc1ccccc1CSCC(=O)NCCN1CCOCC1 [CBK269207] | 86.8042
CC(C)C(=O)Nc1c(-c2ccccc2)cnc2ncccc12 [CBK083713] | 66.974
CCCCC(Sc1ccc2nnc(-c3ccccn3)n2n1)C(=O)O (stereo not drawn) [CBK287622] | 110.696
CCC(C)NS(=O)(=O)c1ccc(OCC(=O)O)cc1 (stereo not drawn) [CBK266521] | 98.7545
O=C(O)c1ccsc1NS(=O)(=O)c1ccc(Oc2ccccc2)cc1 [CBK042259] | 106.468
CCCCNC(=S)N[C@H]1CC[C@@]2(C3=CC=CC4C=CC=CC34)CCN(C)[C@H]2C1 (stereo partly drawn) [CBK003610C] | 75.5742
O=C(O)c1ccc(Cl)c(-c2ccc(/C=N/Nc3ccc([N+](=O)[O-])cc3)o2)c1 [CBK078331] | 101.155
COc1nccnc1OC1CCN(Cc2ccc([N+](=O)[O-])cc2)CC1 [CBK084245] | 57.2533
O=C(CN1CCN(c2ccc(C(F)(F)F)cn2)CC1)Nc1ccc2c(c1)OCO2 [CBK074680] | 105.309
CC(=O)Nc1ccc(S(=O)(=O)NC2(C(F)(F)F)C(=O)Nc3c2c(=O)[nH]c(=S)n3C2CCCCC2)cc1 (stereo not drawn) [CBK268683] | 93.3962
Cc1cccc(C)c1N1CCN(CCn2c(=S)[nH]c3ccccc3c2=O)CC1 [CBK267998] | 92.973
O=c1[nH]cc(-c2ccccc2)cc1CNc1ccccc1-n1ccnc1 [CBK284769] | 93.7968
O=C(CCSc1ccc(Cl)cc1)Nc1ccc(S(=O)(=O)N2CCOCC2)cc1 [CBK264133] | 105.592
COCCNC(=O)c1ccc(-c2ccc(OC)cc2)nc1N1CCN(C(=O)c2ccco2)CC1 [CBK106010] | 108.839
